Data reported in the supplement of paper PMC3334620.
In all, about 33,000 sequences were measured (“E-score (-0.5 to 0.5)”: median about -0.013, highest 2% from about 0.3 on). Some of the results follow.

These sequences were tested against T1, Msn1 (UniProt P22148) (assay: PBM E-score (8-mer binding enrichment) (E-score (-0.5 to 0.5)); higher = stronger / more preferred TF binding; most listed sequences are background and not binding sites). Conditions: protein concentration: 200 nM; construct: GST-full length.
T1 sequence: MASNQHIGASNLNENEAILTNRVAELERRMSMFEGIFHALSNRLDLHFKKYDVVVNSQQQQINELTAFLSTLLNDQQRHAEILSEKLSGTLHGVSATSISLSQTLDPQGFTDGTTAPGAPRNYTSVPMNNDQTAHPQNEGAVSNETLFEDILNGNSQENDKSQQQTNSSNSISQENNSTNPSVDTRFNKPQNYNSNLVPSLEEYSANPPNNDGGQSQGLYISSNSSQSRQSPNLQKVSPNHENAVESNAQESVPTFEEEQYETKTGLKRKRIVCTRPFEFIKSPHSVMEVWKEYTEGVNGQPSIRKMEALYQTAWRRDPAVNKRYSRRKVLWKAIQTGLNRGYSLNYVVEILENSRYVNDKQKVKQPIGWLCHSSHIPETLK
Outline: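 Each ungapped eight-base word and its reverse complement, pooled, received an E-score from the Universal PBM Analysis Suite. Underlying scans, normalised with masliner, recorded fluorescent anti-GST bound to GST-tagged yeast transcription factors. These were applied at about 100-200 nM to universal all-10-mer Agilent arrays double-stranded by primer extension.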

Sequence	PBM E-score
AGGGTTTA	0.111
ATTGAGGG	-0.237
GTAGCGAA	-0.0704
CAATTATC	0.164
CAGCGCCA	-0.128
ATTCGCCG	0.154
CGACACCA	0.00984
CGCGTAAG	0.0374
GAACGCCC	-0.195
ACTGGAAG	-0.126
GCCTAAGC	-0.136
AATTACGT	0.0895
ATGTGATA	0.0977
AATTTGGC	0.00267
ACGAGCGC	-0.156
ATCCCCCA	-0.369
CAGCTCTC	-0.257
CAGCAGTA	-0.117
GCATTACC	-0.227
AAATCTTG	0.0194
TAGGACTA	0.257
AAGACGGG	0.0296
GACCGTAA	-0.0337
AGACGGAC	0.219
TAGCATAA	-0.12

Sequence	PBM E-score
CACAATAG	0.0552
GGCCGGAA	-0.174
AACGTCGA	0.121
CAAACGTG	0.0734
ACATATGG	0.262
GGCGCAGA	0.0291
CTACAACC	-0.109
CTCGCTTC	-0.113
ACGGTAGC	0.0446
TCAGCACA	0.133
ACGGATGA	-0.0366
ATCCAGAT	-0.127
ACGTTAGT	0.0228
CCCCTTCA	-0.245
GGCTAGGA	-0.129
GTTCGGAA	0.135
CTCCATGC	-0.366
AAATGCTT	0.0558
AATCCGCC	-0.00324
CCGATCGG	0.0495
GAGTCGGC	-0.0725
AGGGTGTG	-0.245
ACCTTCGT	0.0107
CTCTTTCA	-0.0847
CGTCAGAA	-0.258

Sequence	PBM E-score
GCGTACCA	-0.11
AGTGGCGC	-0.115
GGCAGACC	-0.327
ACTAGCCT	0.108
ACCAGGAA	-0.0403
ACACCCCT	-0.223
AACCTGGT	0.00051
ACCCCGCC	-0.244
ACCAACAG	-0.127
CCCGCCCA	-0.126
CAATCTGA	-0.0105
CAGCTCAC	-0.0821
CTTTGTCC	0.485
GAAGTATA	0.161
GAGCATGA	-0.144
CCTGCACC	-0.233
CATTATCC	0.2
CACGGTAC	-0.102
GCGTTCTA	-0.0232
AAAGATGG	-0.0523
ATCGTTTC	-0.0386
CCAGAACA	0.0363
AAAACTAG	0.00518
GCAAAGCC	-0.278
TCTTGACA	0.167

Sequence	PBM E-score
ACTAAGTG	-0.0648
CGGTCTAA	-0.0696
CGGGCGTA	-0.0504
GAGGAGCA	-0.184
CGGAGCGC	-0.0677
GTTCTGAA	0.113
CAGCACCA	-0.185
TAGGCTCA	-0.168
CGATGTTC	-0.0457
GGTCCGGA	0.216
GAACAAGA	0.107
ATTGGTGC	-0.00948
GCGGCGCA	0.0968
CTATACAA	0.121
TAATAATA	0.197
CACAACTG	-0.0717
GGCAGCAC	-0.172
CTTGGAAC	-0.0426
CAGATCCG	0.0975
AAATAGCC	-0.0222
ACAGCAGC	-0.0914
CACTCCAG	0.0151
CAGCTGAG	-0.0676
CTATACCA	0.0767
CGAGTCAG	-0.0187

Sequence	PBM E-score
AACTTGAT	0.321
AGTAGTAT	0.018
GGACGTAC	0.163
GAAGTAAA	0.122
AGTGAGAC	0.127
TCATGGGA	0.0847
CTAGGCGC	-0.184
CGACGGCG	-0.101
ACTTACCT	-0.128
CGCCAATA	0.059
AATGCCTA	-0.157
AATCGTGC	0.148
GTCCAAAA	0.318
CAACGAGC	-0.173
AAAAAGTC	0.418
AACGACAT	0.417
TGCAGACA	0.33
CTTTCAGA	0.127
AAGGCTGC	-0.112
CTGAACCA	-0.0175
TGAATCCA	0.126
CTAGTCGA	-0.109
ACCAGACA	0.188
GACCATGA	0.0706
CCTCGGGC	-0.203

Sequence	PBM E-score
CGCGAGTA	0.0691
ACGGAGGA	0.162
CCACATTA	-0.107
AACGACGG	0.0999
CATTGTGA	-0.0194
CCAGGGGC	-0.38
CTCCCCCA	-0.283
CTCACCTC	-0.138
GGCCTCAC	-0.249
AAACTGTG	0.00536
GATGACAA	0.336
AGGCGCTC	-0.0585
GCGAACAC	-0.039
CCTTGCAG	-0.069
TAACTCAA	-0.0662
ATCTGCTG	-0.0193
ATATGCGA	0.022
ATACGACA	0.133
ATAAGAAT	0.276
AAAGGCCA	-0.124
AGCAACGC	-0.00325
ACATTACA	0.175
ACCAGTAA	0.131
AAAGCTAT	-0.0425
AATGCACC	-0.00375

Sequence	PBM E-score
CATAGAGC	-0.151
CTGGAAGC	-0.225
AATTAACC	0.0922
GAACGCCA	-0.0198
ACCCGGTA	0.0382
TGCTTGAA	0.0568
CAAGTGAC	0.0168
CTGAGGTC	-0.114
CTGGGTTA	-0.0533
GAGGTTCC	-0.0957
CCTCTTGC	-0.252
ACTGACTC	-0.0109
GATCCATA	0.0478
AGCCAAAG	0.0256
CGTGCAGA	-0.126
CCGTGTGA	0.0457
AATTAAGG	0.00385
CATTCGAG	0.00844
TCTCGGAA	0.292
AAATGTGC	0.143
GGCTCCGA	-0.0526
TGCGACCA	0.0994
CAGGGAAC	0.00069
AATTCAGT	-0.0391
AATACGCT	-0.0358

Sequence	PBM E-score
AAGAACCA	0.0199
ACATGAAA	0.0293
CATATGGC	0.189
CAGATGGC	-0.018
GGTCACTA	-0.135
GTTGGTGA	0.126
ATTTGAGG	-0.0224
AATTACAT	0.178
CGGGACAA	0.463
ATCGGTCG	0.0272
AACGCAAC	0.0985
ACTAATAT	0.225
GTAAATGA	0.00128
AAAGCTCG	-0.00694
GGTCTACA	-0.069
GATGTAGA	0.144
ATTCGGAC	0.339
GGCACCAA	-0.0664
CGCAACCA	-0.109
CAACGCTA	-0.098
CTTTGGGC	0.0389
ACGAATGG	0.141
AATGCGCT	-0.0183
CGACGGTA	0.139
CATTGCAG	0.00855

Sequence	PBM E-score
CCAGAGAC	-0.0226
AGTTGACC	-0.00887
GATTTCTA	-0.00849
GCTAACCC	-0.226
CCCAGCAA	-0.044
GTCAAGGA	-0.035
CGAGAGGA	-0.0902
ATAGCTAG	-0.166
GAAGAACA	0.236
ACAGGAAG	0.0949
AAACCTAA	0.0477
AACGAATT	0.0856
GAAGATTA	0.0384
TCATCACA	-0.0798
ACACAGCT	0.0696
TAGGTGCA	-0.16
CCAACAAA	-0.0326
AGATGGAC	0.234
GTCGATAA	0.0533
CAACTTGA	0.1
ATGGGGGA	-0.338
AAAGAAGT	0.0817
ACTGAGCA	-0.16
ACGCACGG	-0.0172
CAGGTGCC	-0.201

Sequence	PBM E-score
GACTCATC	-0.0489
ATTCGGTA	0.182
TAGGGACA	0.484
GGAAGAAA	-0.0198
AAGAAGGG	-0.197
GCCAGGAC	0.212
AGTTTGGA	0.112
AAAATATA	0.246
ATGCAAGG	-0.296
CCCTTTGA	-0.268
AAACCTAG	-0.0327
GCAGCCCA	-0.0983
GCCGCACA	-0.0234
ATATAACC	-0.0107
CTATAAAG	-0.13
GATTTGCC	0.0882
AAGTTCAA	0.0772
AATCTCCC	-0.221
TCAACTCA	-0.00767
GAGCCAAA	0.0165
AATCAGGT	0.0584
AGCTACCA	-0.12
AAACAGGT	-0.144
CAATTAAG	0.107
AGCTGTTC	-0.13

Sequence	PBM E-score
CTGTGGCC	-0.297
GACCGTGA	-0.0454
CACCCATC	-0.0828
AAAGCAAA	0.112
CCTGGCCC	-0.306
CTCAATCA	-0.0211
AATCTGCT	0.0105
AGGTTGCC	-0.18
AGGCACCT	-0.167
CTAAGTAA	0.00474
ACGTAACG	0.0298
CTCCGTCA	-0.128
AGTGGGTC	-0.35
AGCGCAAG	-0.0435
AAAATGAT	0.227
TAATGATA	0.0644
GGTGCCAC	-0.122
CGCTGCGA	0.0869
CTTTCCCA	-0.0983
ACGCTCTA	-0.242
CCGTTACG	-0.0788
GACGAGTC	0.0672
AGCGTAAC	0.0686
AAAGTTGG	0.0281
AGCCAACT	-0.194

Sequence	PBM E-score
GAGCGTAA	-0.0204
ACGCCGAT	-0.0633
GGAAGACC	-0.218
AACTGATT	0.0951
CACATAAG	-0.0961
GCAAAGGC	-0.262
ATTAGAAA	0.0845
CACCGGGA	-0.178
AGTATACT	-0.307
CCGCCCTA	-0.144
AATACGAA	0.0224
CATTTAGC	-0.108
GTAGAAGA	-0.0168
CACAACCC	-0.139
GAAGAGAC	0.16
AACAGCTA	-0.0494
AGCGTGCG	-0.0744
CCATATAA	0.124
ATAAAAGC	0.0126
GATGAGGC	-0.314
AGTGGTTC	-0.131
TTACCAAA	-0.064
GACGTATA	-0.06
ACGTCAGT	-0.104
CACGCCAA	-0.0546

Sequence	PBM E-score
CACGTCGG	-0.0401
CAATCGGA	0.174
CCTGTACG	-0.0119
AGTGTCGG	0.202
CACCCCTG	-0.325
ACCGTAGG	-0.25
AATCGTCA	0.0854
GCCCGCGC	0.0392
CAGGCAGG	-0.171
AATCGTGA	-0.0293
CGCGTTAA	0.126
CGGCGACG	0.0965
CCTATCCG	-0.185
TACATACA	0.207
GATGATAC	-0.0724
ATAAACGG	0.15
AGAAAAGG	0.0226
GCTAATAA	-0.0698
GGCGAGCA	-0.0323
GTCTAAAA	0.156
CCGGTGAG	-0.156
CGCGGTTA	0.0222
ACGTTTTG	0.00464
AAAGGTGA	0.0494
GGATTGCA	-0.0706

Sequence	PBM E-score
GGGAGATA	-0.196
AGTATGAT	0.101
TCATCGAA	-0.0107
CCGATCGC	0.0345
CGAACACA	0.0753
AGAGAATC	-0.0743
CGCTAAGA	-0.118
ATGCATAG	0.0299
CCGTGTAG	-0.109
GCGTAAGC	-0.337
CAGCTATA	-0.0985
CGCGTGCA	-0.18
CGAATCAA	0.175
CTCAGTCC	-0.0157
CAACCATA	-0.104
GAATTCCC	0.0167
ATACTAAG	0.103
CCTTGCCA	0.0681
ATGCTGCC	-0.115
